Measurements: PubChem BioAssay AID588855 (National Center for Advancing Translational Sciences (NCATS), 2011)
The campaign covered roughly 410,000 compounds. About 5,000 (1.2%) were called active. The shares of active, inactive and inconclusive entries below differ from those in the screen. Calls follow the shape of the dose curve; as a rule, active = well fitted inhibition curve with a large enough effect; inconclusive = small, poorly fitted or top-dose-only effect; inactive = no such curve, though single readings can be large or run the other way. Potencies beside an inconclusive call are fits to weak or partial responses and may not hold up.

assay: qHTS for Inhibitors of TGF-b; details: HepG2 CAGA-GFP TGF-b/SMAD3 reporter, GFP fluorescence, 18 h, TGF-beta stimulated, 500 pg/mL final; series mostly up to 46.1 µM; activity, negative = inhibition: at the top concentration; also: nearly all actives have a fitted effect of over 65% in size
Procedure, shortened: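 Per well, imaged GFP fluorescence of HEPG2 CAGA-GFP cells gives the signal; cells get compound, then TGF-beta (500 pg/mL final), 18 h at 37 degrees C; %Activity versus -TGF-beta and +DMSO controls.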
% is scaled to controls: 0 for no effect and ±100 for the full control effect; potency is read from the fitted curve at half-maximal effect; tags tell the direction and shape of the fitted curve.

SMILES	Potency	activity, negative = inhibition
CC(C)(C#CCN1CCCCC1)OCCOC(c1ccccc1)c1ccccc1	inconclusive: 31.6 µM [inhibitor, single point]	
CCOC(=O)[C@@H]1[C@H]2COc3ccc(Br)cc3[C@@H]2N2C(=O)N(c3ccccc3)C(=O)[C@]12C	inconclusive: 11.2 µM [inhibitor, single point]	
COc1ccc(C(C)=O)cc1Cn1c(C)c(C(=O)NCc2ccc(C(F)(F)F)cc2)sc1=O	inconclusive: 17.8 µM [inhibitor, single point]	
CCCN(C(=O)CSc1nnc(-c2ccoc2C)n1N)C1CCS(=O)(=O)C1 (configuration not stated)	inconclusive: 0.891 µM [inhibitor, full curve, poor fit]	
COc1cc(C)nc(N(Cc2ccccc2)S(=O)(=O)c2ccc(C)cc2)n1	inconclusive: 17.8 µM [inhibitor, partial curve, poor fit]	
Cc1cc(Br)ccc1NC(=O)CNC(=O)CNc1cccc([N+](=O)[O-])c1	inconclusive: 20 µM [inhibitor, partial curve, poor fit]	
Cc1cc(Cl)ccc1C(=O)C1CCCN(C(=O)c2cncs2)C1 (configuration not stated)		inactive: -2.07%
CCOc1ccc(-c2nc(N)nc(C)c2-c2ccc(OC)c(OC)c2)c(O)c1		inactive: -14.7%
CCn1cc(C(=O)N(C)Cc2ccccc2)c(=O)c2cc(S(=O)(=O)N3CCc4ccccc4C3)ccc21	inconclusive: 11.2 µM [inhibitor, partial curve, poor fit]	
COc1cccc(-c2csc(Nc3ccc(Oc4ccccc4)cc3)n2)c1	inconclusive: 35.5 µM [inhibitor, single point]	
c1cc2cc(CNc3nc(NCC4CC4)nc4ccsc34)ccc2o1	inconclusive: 35.5 µM [inhibitor, single point]	
CCCn1c(SCC(=O)N2CCN(c3ccc(OC)cc3)CC2)nc2c1c(=O)n(C)c(=O)n2C	inconclusive: 35.5 µM [inhibitor, single point]	
COc1ccc(NC(=O)c2ccc3c(c2)NC(=O)CO3)cc1OC	inconclusive: 12.6 µM [inhibitor, single point]	
Cc1nn(Cc2ccc(Cl)cc2Cl)c(C)c1NC(=O)CCl	inconclusive: 35.5 µM [inhibitor, single point]	
COc1ccc(C(=O)NC(=S)Nc2ccccc2N2CCOCC2)cc1Br		inactive: 0.322%
CC(=O)c1cccc(S(=O)(=O)Nc2cccc(S(=O)(=O)NC3=NCCC3)c2)c1		inactive: 1.71%
O=C(Nc1ccccc1N1CCN(C(=O)c2ccccc2)CC1)c1cccc(Cl)c1	inconclusive: 35.5 µM [inhibitor, single point]	
